PubChem BioAssay AID504832 (National Center for Advancing Translational Sciences (NCATS), 2011)
The campaign covered roughly 310,000 compounds. About 18,000 (5.8%) were called active. The inconclusive results got no clear call from the source; some entries with a clear call stand among them for comparison. Calls come from the whole dose curve; as a rule, active = well fitted inhibition curve with a large enough effect; inconclusive = small, poorly fitted or top-dose-only effect, or another doubt; inactive = no such curve, though single readings can be large or run the other way. No potency is given beside an inconclusive call; the fits are too rough.

assay: Primary qHTS for delayed death inhibitors of the malarial parasite plastid, 48 hour incubation; details: P. falciparum luciferase growth in erythrocytes; series mostly up to 28.7 µM; activity change, negative = inhibition: at the top concentration
Summary of the method: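 Erythrocytes infected with P. falciparum carrying an integrated firefly luciferase reporter (2% hematocrit, 0.1% parasitemia final) were exposed to compounds in RPMI 1640 with 0.5% Albumax at 37 C, 5% CO2. Growth inhibition was scored as reduced luminescence.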
% is set by controls: 0 for no effect and ±100 for the full control effect; potency is the fitted concentration of half-maximal effect; tags give direction and shape of the fitted curve.

Row | Compound | Potency | activity change, negative = inhibition
1 | CCc1ccc(C(=O)C[n+]2cccc3cc(OC)ccc32)cc1 | inconclusive [inhibitor, single point] | –
2 | COc1ccccc1-c1csc(N2CCC(C(N)=O)CC2)n1 | active: 11.7 µM | –
3 | CCOC(=O)c1c(CSC(=N)N)n(C)c2cc(Br)c(OC(C)=O)cc12 | inconclusive [inhibitor, partial curve, poor fit] | –
4 | Cc1ccc(C(=O)NCC(c2cccs2)N(C)C)cc1S(=O)(=O)N1CCOCC1 (stereo not drawn) | inconclusive [inhibitor, single point] | –
5 | COc1ccccc1CN1C[C@@H]2C[C@@H](C3=Cc4cc(Cl)ccc4OC3)N3CCC[C@@]23C1=O | inconclusive [inhibitor, full curve, poor fit] | –
6 | COc1cccc(C(C(=O)NC2CCCC2)N(C(=O)c2ccco2)c2ccccc2F)c1OC (stereo not drawn) | active: 8.28 µM | –
7 | CCOc1ccccc1NC(=O)C1CCCN1C(=O)OCc1ccccc1 (stereo not drawn) | – | inactive: -27.2%
8 | CN(CC1CCCN(CCc2ccc(Cl)cc2)C1)C(=O)c1ccc2nc[nH]c2c1 (stereo not drawn) | inconclusive [inhibitor, single point] | –
9 | CC(C(=O)N1CCc2ccccc21)N1CCN(Cc2ccccc2)CC1 (stereo not drawn) | inconclusive [inhibitor, partial curve, poor fit] | –
10 | Cc1ccc(C(=O)N/C(=C\c2ccc(-c3ccc(Br)cc3)o2)C(=O)NCCCN(C)C)cc1 | inconclusive [inhibitor, partial curve] | –
11 | Cc1cc(C)n2nc(NCc3ccccc3)nc2n1 | – | inactive: 8.6%
12 | C=CCN(Cc1ccc(OC)c(OC)c1)C(=O)c1cc2cc(F)ccc2[nH]1 | inconclusive [inhibitor, partial curve, poor fit] | –
13 | CCN(Cc1nc2cc(Cl)ccc2c(=O)[nH]1)C(=O)CN1C(=O)NC2(CCCCC2C)C1=O (stereo not drawn) | inconclusive [inhibitor, partial curve, poor fit] | –
14 | O=C(N/N=C/c1cc(Br)c(O)c(Br)c1O)c1ccc2c(c1)OCCO2 | inconclusive [inhibitor, single point] | –
15 | CS(=O)(=O)N(CC(=O)N1CCOCC1)c1ccccc1 | – | inactive: 15%
16 | COc1ccc(/C=N/Nc2cc(C)nc(N3CCOCC3)n2)c(OC)c1 | – | inactive: 2.33%
17 | Cc1cc(C)nc(/N=C(\N)Nc2cccc([N+](=O)[O-])c2)n1 | inconclusive [inhibitor, single point] | –
18 | COc1ccc(C(C)NC(=S)NC2CCCCC2)cc1OC (stereo not drawn) | active: 2.08 µM | –
19 | ClC(Cl)c1nnc(-c2ccccc2)c(-c2c[nH]c3ccccc23)n1 | inconclusive [inhibitor, partial curve] | –
20 | O=[N+]([O-])c1cc(C(F)(F)F)cc([N+](=O)[O-])c1NCCCNc1ccc([N+](=O)[O-])c2cccnc12 | inconclusive [inhibitor, single point] | –
21 | O=C(O)C1CC=CCC1C(=O)Nc1cccc(C(=O)N2CCCCC2)c1 (stereo not drawn) | – | inactive: 13.8%
22 | COc1ccc(NC(=O)C(Cc2ccccc2)n2cccc2)cc1OC (stereo not drawn) | inconclusive [inhibitor, partial curve, poor fit] | –

Row | Compound | Potency | activity change, negative = inhibition
23 | Cc1ccc(Cn2nnnc2CN2CCC(O)(c3ccccc3F)CC2)cc1 | active: 14.7 µM | –
24 | CCc1nc2ccccc2c(C(=O)OCC(=O)C(C)(C)C)c1C | inconclusive [inhibitor, single point] | –
25 | CCCNC(=O)c1ccccc1NC(=O)c1ccccc1N(C)S(=O)(=O)c1ccccc1 | inconclusive [inhibitor, single point] | –
26 | Cc1ccc(NC(=O)c2ccc(CSc3ccccn3)cc2)cc1 | – | inactive: 40.6%
27 | COc1cc(/C=N/n2nnnc2Nc2ccccc2)cc(OC)c1OC | inconclusive [inhibitor, single point] | –
28 | CCOC(=O)Cc1csc(NC(=O)COc2cccc(C)c2)n1 | – | inactive: -9.64%
29 | CCOC(=O)c1[nH]c2ccc(Br)cc2c1NC(=O)CCN1CCCC(C)(C)C1 | inconclusive [inhibitor, single point] | –
30 | CN(C(=O)CSC1=Nc2ccccc2C2=NC(c3ccccc3)C(=O)N12)C1CCCCC1 (stereo not drawn) | inconclusive [inhibitor, partial curve, poor fit] | –
31 | CC(C)CNC(=O)c1cccc(NC(=O)C(C)Oc2ccccc2)c1 (stereo not drawn) | – | inactive: 0.879%
32 | Cc1c(Cc2ccccc2)c(=O)oc2c(C)c(OCC(=O)Nc3ccc(C#N)cc3)ccc12 | inconclusive [inhibitor, full curve] | –
33 | C/C(=N\NC(=O)c1cc(C)nc2ccccc12)c1ccc([N+](=O)[O-])cc1 | inconclusive [inhibitor, partial curve] | –
34 | COc1ccc(C(C(=O)NC2CCCC2)N2CCc3ccccc32)cc1 (stereo not drawn) | inconclusive [inhibitor, single point] | –
35 | CCN(CC)C(=O)c1sc(NC(=O)Cc2ccccc2)c(C#N)c1C | inconclusive [inhibitor, single point] | –
36 | Cn1c(=O)[nH]c(=O)c2c1nc(N1CCNCC1)n2Cc1cccc2ccccc12 | inconclusive [inhibitor, single point] | –
37 | Cc1cccc(N2CCN(C(=O)CCS(=O)(=O)c3ccc(Br)cc3)CC2C)c1 (stereo not drawn) | inconclusive [inhibitor, partial curve, poor fit] | –
38 | O=C(CCC(=O)N1CCOc2ccccc21)Nc1ccc(F)cc1F | – | inactive: -0.862%
39 | COc1ccccc1C(=O)OCC(=O)NC(=O)NC1CCCCC1 | – | inactive: 0.86%
40 | COc1cccc(/C=N/NC(N)=S)c1OCc1ccccc1Cl | inconclusive [inhibitor, partial curve, poor fit] | –
41 | COC(=O)CCc1c(C)c(C(=O)c2cccc(OC)c2OC)c2ccccn12 | inconclusive [inhibitor, single point] | –
42 | COc1cccc(COC(=O)c2cc(S(=O)(=O)N3CCCCC3)ccc2N2CCOCC2)c1OC | active: 6.57 µM | –
43 | C=CCSc1nc2ccccc2n1C(=O)/C=C/c1ccc(OC)c(OC)c1 | inconclusive [inhibitor, single point] | –
